The values below come from patent publication US20080241130A1 (published 2008).

B2: human IL-17A (ligand)
chain: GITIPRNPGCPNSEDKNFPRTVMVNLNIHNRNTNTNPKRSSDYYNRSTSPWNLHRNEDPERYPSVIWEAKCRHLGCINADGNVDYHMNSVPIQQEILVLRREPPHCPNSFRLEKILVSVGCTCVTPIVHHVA
modifications: biotinylated in the ELISA (FluoReporter Mini-biotin-XX kit); sites not stated
notes: Homodimer; it was purified by methods of US 11/353,161 and Wright et al. 2007; also called hIL-17A
B3: human IL-17F/IL-17A heterodimer (ligand)
chain 1: RKIPKVGHTFFQKPESCPPVPGGSMKLDIGIINENQRVSMSRNIESRSTSPWNYTVTWDPNRYPSEVVQAQCRNLGCINAQGKEDISMNSVPIQQETLVVRRKHQGCSVSFQLEKVLVTVGCTCVTPVIHHVQ
chain 2: [about 150 residues not shown]
modifications: biotinylated in the ELISA; sites not stated
notes: Heterodimer of one IL-17F chain and one IL-17A chain; also called hIL-17F/IL-17A; hIL-17F/A
B4: human IL-17RC.Fc (Fc fusion)
chain: LERLVGPQDATHCSPGLSCRLWDSDILCLPGDIVPAPGPVLAPTHLQTELVLRCQKETDCDLCLRVAVHLAVHGHWEEPEDEEKFGGAADSGVEEPRNASLQAQVVLSFQAYPTARCVLLEVQVPAALVQFGQSVGSVVYDCFEAALGSEVRIWSYTQPRYEKELNHTQQLPALPWLNVSADGDNVHLVLNVSEEQHFGLSLYWNQVQGPPKPRWHKNLTGPQIITLNHTDLVPCLCIQVWPLEPDSVRTNICPFREDPRAHQNLWQAARLRLLTLQSWLLDAPCSLPAEAALCWRAPGGDPCQPLVPPLSWENVTVDKVLEFPLLKGHPNLCVQVNSSEKLQLQECLWADSLGPLKDDVLLLETRGPQDNRSLCALEPSGCTSLPSKASTRAARLGEYLLQDLQSGQCLQLWDDDLGALWACPMDKYIHKRAGSGSGSG[human IgG1 Fc with L234A G237A (EU numbers) not shown]
notes: also called hIL-17RC.Fc

The experiment “human IL-17A” has as its target B2. The experiment can be described thus: SPR (Biacore 2000), receptor.Fc amine-coupled, cytokine injected, 1:1 model, 22 C. As for the experimental part:
(§1) A Biacore 2000 instrument (Biacore, Piscataway, N.J.) was used for kinetic measurements. Sensor chip surfaces comprising purified hIL-17R.Fc or hIL-17RC.Fc (Wyeth, Cambridge, Mass.) were prepared using amine coupling according to the manufacturer's recommendation (Biacore). Briefly, the sensor chip surface was first activated by injecting a mixture of N-ethyl-N-(2-dimethylaminopropyl) carbodiimide hydrochloride and N-hydroxysuccinimide (NHS-EDC) (Biacore) over each flow cell. Five μg/ml hIL-17R.Fc or hIL-17RC.Fc in 10 mM sodium acetate at a pH of 4.5 was injected over separate flow cells, with a desired target level of 1000 to 2000 RU. Remaining active sites were blocked by 1 M ethanolamine HCl. A reference surface was prepared with an injection of NHS-EDC followed by 1 M ethanolamine HCl. All experiments were performed at 22° C. and the data collection rate was 10 Hz. Human IL-17F, hIL-17A or hIL-17F/IL-17A heterodimer was each diluted into HBST buffer (10 mM Hepes with 0.15 M NaCl, 3.4 mM EDTA, and 0.005% surfactant P20) at an initial concentration of 400 nM and serially diluted to 100 nM, 50 nM, 25 nM, 12.5 nM, 6.25 nM, 3.12 nM and 1.56 nM in the same buffer. Samples were injected in triplicate over each sensor surface at 50 μL/minute to allow for 3-minute association followed by 10-minute dissociation. The surface was regenerated at the end of each dissociation with a 30-second injection of 30% solution of 1.83 M MgCl₂, 0.46 M KSCN, 0.92 M urea, and 1.83 M guanidine-HCl, followed by two consecutive 15-second HBST injections. Samples were tested at least twice to obtain results from more than one immobilized sensor surface. Data were double referenced as described in Myszka ((1999) J. Mol. Recognit. 12:249-84) to improve data quality using Scrubber2 software (BioLogic Software v2.0a, Campbell, Australia). The resulting kinetic data was fit to a 1:1 binding model using Biacore evaluation software version 3.2.
(§2) The binding kinetics of human IL-17F, hIL-17A and hIL-17F/IL-17A to both hIL-17R.Fc and hIL-17RC.Fc receptors were compared. The association and dissociation rate constants were directly measured by real-time surface plasmon resonance using Biacore, as described in Example 1.1.12.
On the technique in general: Surface plasmon resonance follows binding to a sensor surface in real time, without labels.

The target of another experiment is T1, human IL-17F (human, UniProt Q96PD4 31-163, biotinylated in the ELISA (FluoReporter Mini-biotin-XX kit); sites not stated).
T1 construct: Homodimer; also called hIL-17F
T1 sequence: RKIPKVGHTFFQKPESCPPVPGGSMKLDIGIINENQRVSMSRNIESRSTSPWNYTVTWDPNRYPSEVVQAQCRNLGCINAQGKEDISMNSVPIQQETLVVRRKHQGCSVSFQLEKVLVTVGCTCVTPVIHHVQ
The experiment is described as above. As to the method: as §1, §2

Experiment [1] addresses B3. The experiment is described as above. As for the experimental part: as §1, §2
The target of the experiment “human IL-17RC.Fc” is B4. Put plainly: indirect sandwich ELISA: IL-17RC.Fc captured on goat anti-human IgG-Fc, biotinylated cytokine titrated, Poly-HRP streptavidin. As to the method: Binding of human IL-17F, hIL-17A or hIL-17F/IL-17A to human IL-17R.Fc (hIL-17R.Fc) and IL-17RC.Fc (hIL-17RC.Fc) was determined by indirect sandwich ELISA. ELISA plates (Costar, Cambridge Mass.) were coated overnight with 10 μg/ml goat anti-human IgG-Fc (Bethyl Laboratories, Montgomery, Tex.). Human IL-17R.Fc or hIL17-RC.Fc was then loaded at 6 ng/ml and 30 ng/ml, respectively, for 3 hours, followed by serial dilutions of biotinylated IL-17A, IL-17F or IL-17F/IL-17A for 2 hours. The plate was developed with Poly-HRP Streptavidin (Pierce Biotechnology, Rockford, Ill.) and TMB Substrate (KPL Labs, Gaithersburg, Md.).
The binding of hIL-17F, hIL-17A or hIL-17F/IL-17A to hIL-17R.Fc and/or hIL-17RC.Fc was evaluated by indirect sandwich ELISA. All three cytokines bound to hIL-17RC.Fc with approximately the same EC₅₀ of 18-25 ng/ml (FIG. 1B). However, the EC₅₀ for the three cytokines were different for binding to hIL-17R.Fc. The tightest binding occurred between hIL-17A and hIL-17R.Fc with an EC₅₀ of 25 ng/ml. Human IL-17F bound weakly to hIL-17R.Fc with an EC₅₀ greater than 2000 ng/ml.
On the technique in general: ELISA stands for enzyme-linked immunosorbent assay.

B1: human IL-17R.Fc (Fc fusion)
chain: LRLLDHRALVCSQPGLNCTVKNSTCLDDSWIHPRNLTPSSPKDLQIQLHFAHTQQGDLFPVAHIEWTLQTDASILYLEGAELSVLQLNTNERLCVRFEFLSKLRHHHRRWRFTFSHFVVDPDQEYEVTVHHLPKPIPDGDPNHQSKNFLVPDCEHARMKVTTPCMSSGSLWDPNITVETLEAHQLRVSFTLWNESTHYQILLTSFPHMENHSCFEHMHHIPAPRPEEFHQRSNVTLTLRNLKGCCRHQVQIQPFFSSCLNDCLRHSATVSCPEMPDTPEPIPDYMGSGSGSG[human IgG1 Fc with L234A G237A (EU numbers) not shown]
notes: also called hIL-17R.Fc; IL-17RA.Fc
Usually Kd stands for the concentration at which binding is half-saturated. Low readings indicate a tighter complex, high ones a looser complex. For orientation: koff means the first-order rate constant of dissociation. A higher koff goes with a short-lived complex. The kon is a measure of how fast the partners come together. On to B1, for which, in the experiment with human IL-17A, binding was characterised by a dissociation constant (Kd) of 2.15 nM, the koff was determined as 0.000294 s⁻¹ and the kon is 139000 M⁻¹ s⁻¹. In the experiment with human IL-17F, this molecule had a Kd of 174 nM, a dissociation rate constant (koff) of 0.00164 s⁻¹ and a kon of 9430 M⁻¹ s⁻¹. In experiment [1], this molecule returned a dissociation constant Kd of 25.5 nM, a koff of 0.00103 s⁻¹ and a kon of 42800 M⁻¹ s⁻¹.
What is called EC50 (read off the curve) is the concentration at which the effect is half-maximal. A high value points to a need for much substance. As for B2, in the experiment with human IL-17RC.Fc, the “EC50 (read off the curve)” value is ~0.02 µg/mL.
On the same count and under the same terms, for B3 the value was ~0.02 µg/mL.
B4: in the experiment with human IL-17A, the affinity, expressed as Kd, was 20.1 nM; the koff was 0.00179 s⁻¹; the kon came to 89200 M⁻¹ s⁻¹. In the experiment with human IL-17F, this molecule gave a dissociation constant (Kd) of 16.6 nM, a koff of 0.00212 s⁻¹ and an association rate constant (kon) of 128000 M⁻¹ s⁻¹. In experiment [1], this molecule returned a Kd of 10.6 nM, a koff of 0.00151 s⁻¹ and a kon of 144000 M⁻¹ s⁻¹.
